Measurements reported in the supplement of paper PMC10037445.
“And” between values parts separate entries of the source, which are not always exact repeats. Equal values may be shown once. Whole data set: some 2,900 compounds, median “NF-kB SEAP reporter activity, fold change vs agonist alone” near 0.99, cut for the highest 2% near 2.6. This is one part of the list.

Experiments:
[1] = system: RAW-Dual; assay: NF-kB SEAP reporter activity, fold change vs agonist alone; higher = enhanced NF-kB activity; conditions: library stock concentration (final ~1000-fold dilution): 10 mM
How it was run: (§1)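 Supernatant from RAW-Dual macrophages was read after 20 hours for IRF by QuantiLuc luminescence and for NF-κB by QuantiBlue absorbance at 620 nm. The cells (50,000 cells/well in DMEM, 384-well plates, 37 °C, 5% CO2) had received 50 nL of library stock by pin tool and, 1 h later, a PRR agonist. Reporter activity is expressed relative to agonist-alone wells as fold change, and wells were flagged cytotoxic if IncuCyte confluency was under 70% of agonist controls in both mask sets.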

[2] = system: RAW-Dual; assay: NF-kB SEAP reporter activity, fold change vs agonist alone; cytotoxicity flag (confluency mask): cytotoxic (confluency <70% of control); higher = enhanced NF-kB activity
How it was run: as §1

[3] = system: RAW-Dual; assay: NF-kB SEAP reporter activity, fold change vs agonist alone; cytotoxicity flag (confluency mask): not cytotoxic; higher = enhanced NF-kB activity
How it was run: as §1

[4] = cytotoxicity flag (confluency mask): cytotoxic (confluency <70% of control), agonist: MPLA (TLR4) […]
[5] = agonist: ODN 1826 (TLR9) 0.5 ug/mL
[6] = agonist: Pam2CSK4 (TLR2/6) 0.1 ug/mL
[7] = agonist: Pam3CSK4 (TLR2/1) 0.1 ug/mL
[8] = cytotoxicity flag (confluency mask): not cytotoxic, agonist: Imiquimod (TLR7) […]
[9] = cytotoxicity flag (confluency mask): not cytotoxic, agonist: MPLA (TLR4) […]

**Q.** Which “NF-kB SEAP reporter activity” value [1, 4] does the source give for Cl.ClCCN(Cc1ccccc1)Cc1ccccc1 here?
**A.** Its value is 0.656.

**Q.** Which results are given for Cl.ClCCN(Cc1ccccc1)Cc1ccccc1 (library stock concentration (final ~1000-fold dilution): 10 mM)?
**A.** NF-kB SEAP reporter activity ([2]; agonist: LPS (TLR4) 0.1 ug/mL): 0.497; NF-kB SEAP reporter activity [2, 5]: 0.569; NF-kB SEAP reporter activity [2, 6]: 0.821; NF-kB SEAP reporter activity [2, 7]: 0.633

**Q.** Which results are given for Br.CN1C2CC(OC(=O)C(CO)c3ccccc3)CC1C1OC12 (stereo not given) (library stock concentration (final ~1000-fold dilution): 10 mM)?
**A.** NF-kB SEAP reporter activity ([3]; agonist: LPS (TLR4) 0.1 ug/mL): 0.903; NF-kB SEAP reporter activity [3, 5]: 0.993; NF-kB SEAP reporter activity [3, 6]: 0.989; NF-kB SEAP reporter activity [3, 7]: 1.23

**Q.** Which results are given for Br.CN1C2CC(OC(=O)C(CO)c3ccccc3)CC1C1OC12 (stereo not given)?
**A.** NF-kB SEAP reporter activity [1, 8]: 0.918; NF-kB SEAP reporter activity [1, 9]: 0.988

**Q.** O=C([O-])C(Cl)Cl.[Na+] (library stock concentration (final ~1000-fold dilution): 10 mM) was tested. Which “NF-kB SEAP reporter activity” value ([3]; agonist: LPS (TLR4) 0.1 ug/mL) did it give?
**A.** Its value is 1.11 and 0.906.

**Q.** And the “NF-kB SEAP reporter activity” value [3, 5]?
**A.** The value was 1.14 and 0.982.

**Q.** And the “NF-kB SEAP reporter activity” value [3, 6]?
**A.** Its value is 1.11 and 0.989.

**Q.** What about the “NF-kB SEAP reporter activity” value [3, 7] of the same molecule?
**A.** Its value is 1.19 and 1.32.

**Q.** What does the source list for CCN1CCN(C(=O)Cc2ccc(Nc3ncc(F)c(Nc4ccc(C(=O)Nc5ccccc5Cl)cc4)n3)cc2)CC1?
**A.** NF-kB SEAP reporter activity ([1]; cytotoxicity flag (confluency mask): cytotoxic (confluency <70% of control), agonist: Imiquimod (TLR7) […]): 1.36; NF-kB SEAP reporter activity [1, 4]: 1.76

**Q.** For CCN1CCN(C(=O)Cc2ccc(Nc3ncc(F)c(Nc4ccc(C(=O)Nc5ccccc5Cl)cc4)n3)cc2)CC1 (library stock concentration (final ~1000-fold dilution): 10 mM), which “NF-kB SEAP reporter activity” value ([2]; agonist: LPS (TLR4) 0.1 ug/mL) is on record?
**A.** The value was 1.07.

**Q.** What about the “NF-kB SEAP reporter activity” value [2, 5] of the same molecule?
**A.** The value was 0.351.

**Q.** What about the “NF-kB SEAP reporter activity” value [2, 6] of the same molecule?
**A.** The value was 0.508.

**Q.** What about the “NF-kB SEAP reporter activity” value [2, 7] of the same molecule?
**A.** The value was 1.06.

**Q.** Which results are given for CC(O)(CS(=O)(=O)c1ccc(F)cc1)C(=O)Nc1ccc(C#N)c(C(F)(F)F)c1 (stereo not given)?
**A.** NF-kB SEAP reporter activity [1, 8]: 1.05; NF-kB SEAP reporter activity [1, 9]: 1.15

**Q.** What does the source list for CC(O)(CS(=O)(=O)c1ccc(F)cc1)C(=O)Nc1ccc(C#N)c(C(F)(F)F)c1 (stereo not given) (library stock concentration (final ~1000-fold dilution): 10 mM)?
**A.** NF-kB SEAP reporter activity ([3]; agonist: LPS (TLR4) 0.1 ug/mL): 0.883; NF-kB SEAP reporter activity [3, 5]: 1.09; NF-kB SEAP reporter activity [3, 6]: 0.805; NF-kB SEAP reporter activity [3, 7]: 1.1

**Q.** Which results are given for CC(Nc1ncnc2nc[nH]c12)c1nc2ccc(F)cc2c(=O)n1-c1ccccc1 (stereo not given) (library stock concentration (final ~1000-fold dilution): 10 mM)?
**A.** NF-kB SEAP reporter activity ([3]; agonist: LPS (TLR4) 0.1 ug/mL): 1.36; NF-kB SEAP reporter activity [3, 5]: 1.51; NF-kB SEAP reporter activity [3, 6]: 1; NF-kB SEAP reporter activity [3, 7]: 1.63

**Q.** CC(Nc1ncnc2nc[nH]c12)c1nc2ccc(F)cc2c(=O)n1-c1ccccc1 (stereo not given) was tested. Which “NF-kB SEAP reporter activity” value [1, 8] did it give?
**A.** Its value is 1.76.

**Q.** What about the “NF-kB SEAP reporter activity” value [1, 9] of the same molecule?
**A.** The value was 1.11.

**Q.** CNC(=O)Oc1cccc2ccccc12 was tested. Which “NF-kB SEAP reporter activity” value [1, 9] did it give?
**A.** Its value is 1.21.

**Q.** What does the source list for CNC(=O)Oc1cccc2ccccc12 (library stock concentration (final ~1000-fold dilution): 10 mM)?
**A.** NF-kB SEAP reporter activity ([3]; agonist: LPS (TLR4) 0.1 ug/mL): 1.09; NF-kB SEAP reporter activity [3, 5]: 0.916; NF-kB SEAP reporter activity [3, 6]: 1.04; NF-kB SEAP reporter activity [3, 7]: 0.896

**Q.** With O.O=C1C=CCC2C3CCCN4CCCC(CN12)C34 (stereo not given) (library stock concentration (final ~1000-fold dilution): 10 mM) as the molecule, how does the “NF-kB SEAP reporter activity” value ([3]; agonist: LPS (TLR4) 0.1 ug/mL) read?
**A.** The value was 1.41.

**Q.** And the “NF-kB SEAP reporter activity” value [3, 5]?
**A.** The value was 0.558.

**Q.** And the “NF-kB SEAP reporter activity” value [3, 6]?
**A.** Its value is 0.957.

**Q.** What about the “NF-kB SEAP reporter activity” value [3, 7] of the same molecule?
**A.** The value was 1.11.

**Q.** Which results are given for O.O=C1C=CCC2C3CCCN4CCCC(CN12)C34 (stereo not given)?
**A.** NF-kB SEAP reporter activity [1, 8]: 0.531; NF-kB SEAP reporter activity [1, 9]: 0.792

**Q.** How did the “NF-kB SEAP reporter activity” value ([3]; agonist: LPS (TLR4) 0.1 ug/mL) turn out when C=CC1C2=CCOC(=O)C2=COC1OC1OC(CO)C(O)C(O)C1O (stereo not given) (library stock concentration (final ~1000-fold dilution): 10 mM) was run?
**A.** Its value is 1.09.

**Q.** And the “NF-kB SEAP reporter activity” value [3, 5]?
**A.** The value was 0.966.

**Q.** What about the “NF-kB SEAP reporter activity” value [3, 6] of the same molecule?
**A.** The value was 1.14.

**Q.** What about the “NF-kB SEAP reporter activity” value [3, 7] of the same molecule?
**A.** Its value is 1.01.

**Q.** Which “NF-kB SEAP reporter activity” value [1, 8] does the source give for C=CC1C2=CCOC(=O)C2=COC1OC1OC(CO)C(O)C(O)C1O (stereo not given) here?
**A.** The value was 0.921.

**Q.** What about the “NF-kB SEAP reporter activity” value [1, 9] of the same molecule?
**A.** Its value is 1.1.
